Source: PubChem BioAssay (NCATS)
The other results are listed elsewhere or left out. Shown are side measurements of this screen, not its main read-out; they come without a call. For some assays here: Most of these compounds were active or inconclusive in the main read-out, so they are no random draw. Potencies come from curve fits of mixed quality, noted in brackets.

How the values were obtained:
[1] = qHTS drug screen for cell cycle checkpoint inhibitors in PARPi-resistant BRCA-mutant ovarian cancer cell lines. (AID 1963452); details: PEO1/OlaR viability, CellTiter-Glo luminescence, 96 h
Procedure, shortened: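 PEO1, PEO4 and PEO1/OlaR ovarian cancer cells, 600 per well, exposed 96 h at 37C to a dilution series. Viability read by CellTiter-Glo luminescence, normalized to DMSO and empty wells; activity summarized as Z-AUC.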

[2] = qHTS for identification of novel therapeutic agents for treatment of microphthalmiaassociated transcription factor (MiT) renal cell carcinoma (RCC) (AID 1963991); details: CellTiter-Glo, 48 h; for z-score: stronger effect = lower value
Procedure, shortened: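 Viability of three TFE3-fusion renal carcinoma lines measured by CellTiter-Glo after 48 h treatment with each of 1912 compounds at 11 concentrations. Responses scaled between DMSO (100%) and empty wells (0%) before curve fitting.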

[3] = qHTS Assay for Modulators of Human Peripheral Myelin Protein 22 (PMP22) Expression/Activity (AID 1967); details: Cell-based PMP22 reporter, dual-color luciferase ratio; measured here: red reporter channel AC50; EF-alpha promoter control reporter in MSC80 mouse Schwann cells
Procedure, shortened: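 Engineered MSC80 cells, Pmp22-promoter green and EF-alpha red luciferase reporters; 24h compound treatment at 37 °C. Concentration-response fits on green, red and ratio signals, each overlap-corrected, with %Activity normalized to untreated wells.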

[4] = qHTS assay for small molecule antagonists of peroxisome proliferator-activated receptor gamma signaling (AID 588537); details: HEK293 PPARg-UAS-bla, beta-lactamase ratio, antagonist mode; measured here: W460 blue channel
Procedure, shortened: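 PPARγ-UAS-bla HEK293 cells (3000/well) in 1% charcoal/dextran-stripped FBS are treated with compound, then stimulated with 50 nM rosiglitazone for 16 h at 37 °C. Read-out is CCF4 β-lactamase fluorescence after 2 h at RT. IC50 comes from Hill fits normalised to rosiglitazone and DMSO.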

[5] = measured here: PEO1 parental viability
[6] = TFE3-RCC UOK109 viability, measured here: UOK109 Z-AUC
[7] = TFE3-RCC viability, measured here: UOK124 Z-AUC
[8] = TFE3-RCC viability, measured here: UOK145 Z-AUC
[9] = TFE3-RCC viability, measured here: UOK145 cell viability
[10] = TFE3-RCC viability, measured here: UOK124 cell viability
Tags describe the fitted curve by direction and shape.

SMILES	AC50 [1, 5]	z-score [2, 6]	z-score [2, 7]	z-score [2, 8]	AC50 [2, 9]	AC50 [2, 10]	AC50 ([1]; measured here: PEO4 viability)	AC50 [3]	AC50 [4]
O=C(c1cc(Cc2n[nH]c(=O)c3ccccc23)ccc1F)N1CCN(C(=O)C2CC2)CC1	9.77 µM [falling, partial curve]	-0.662	0.664	0.147	20.9 µM [falling, partial curve, poor fit]				
C[C@H](NC(=O)c1sccc1OCc1ccc(Cl)cc1)c1ccccc1	8.71 µM [falling, partial curve, poor fit]	-0.216	-0.204	-0.128		23.5 µM [falling, partial curve, poor fit]			
CCC(=O)N[C@H]1CC[C@H](C(=O)N(C)c2ccc(-c3nc4ccccc4o3)cc2)C1	15.5 µM [falling, partial curve]	-0.331	0.101	-0.512	5.9 µM [falling, partial curve]	26.4 µM [falling, single point]			
NC(=O)c1c(OCc2c(F)cc(Br)cc2F)nsc1NC(=O)NCCCCN1CCCC1		-0.111	-0.144	0.185	10.5 µM [falling, partial curve]	18.7 µM [falling, partial curve]	27.5 µM [falling, single point]		
Cc1cc(Cl)ccc1OCCCC(=O)NO		-1.15	0.815	-0.215	26.4 µM [falling, single point]	16.6 µM [falling, partial curve]	19.5 µM [falling, partial curve]		
Cc1ccnc(NS(=O)(=O)c2ccc(NC(=O)Nc3ccc(S(=O)(=O)Nc4nccc(C)n4)cc3)cc2)n1	0.049 µM [falling, full curve, poor fit]	0.544	-0.0954	0.43	20.9 µM [falling, partial curve, poor fit]	1.32 µM [falling, partial curve, poor fit]			
Nc1ccc(C(=O)Nc2cccc(-c3nc(N4CCOCC4)c4oc5ncccc5c4n3)c2)cn1	2.19 µM [falling, partial curve]	-0.544	-0.542	-1.23	1.87 µM [falling, full curve]	2.64 µM [falling, full curve]			
OCCC#Cc1nc(-c2ccc(F)cc2)c(-c2ccncc2)n1CCCc1ccccc1		0.225	2.18	0.477	37.2 µM [falling, single point]	20.9 µM [falling, partial curve]	27.5 µM [falling, single point]		
CN(C)Cc1cccc(N=C(c2ccccc2)c2c(O)[nH]c3cc(C(=O)N(C)C)ccc23)c1		-0.452	-0.517	0.374	14.8 µM [falling, partial curve]	8.33 µM [falling, partial curve]	13.8 µM [falling, partial curve, poor fit]		
OC1CCC(Nc2ncc3nc(Nc4c(F)cc(F)cc4F)n([C@@H]4CCOC4)c3n2)CC1 (some centres not stated)		0.208	-0.159	0.533	33.2 µM [falling, single point]	10.5 µM [falling, partial curve, poor fit]	19.5 µM [falling, partial curve, poor fit]		
Cc1ccn(-c2ccc(-c3ncco3)cc2)c(=O)c1-c1ccc2nc(N)ncc2c1	24.5 µM [falling, single point]	-0.55	-0.939	0.471	13.2 µM [falling, partial curve]	13.2 µM [falling, partial curve, poor fit]			
COc1ccc2[nH]cc(CCNC(C)=O)c2c1	0.0087 µM [rising, full curve, poor fit]	0.276	0.533	-2.63	0.0418 µM [rising, full curve]			84.9 µM [falling, single point]	50.1 µM [rising, single point]
S=C(NCc1ccc2c(c1)OCO2)N1CCN(c2ncnc3c2oc2ccccc23)CC1	0.549 µM [falling, full curve]	-0.407	0.17	0.0638	42.9 µM [falling, partial curve, poor fit]	2.7 µM [falling, full curve]			
